In ChEMBL document CHEMBL4888484, “Replenishing the malaria drug discovery pipeline: Screening and hit evaluation of the MMV Hit Generation Library 1 (HGL1) against asexual blood stage Plasmodium falciparum ,using a nano luciferase reporter read-out” (2022):
Screen size: about 150,000 compounds; about 540 (0.36%) showed an effect of 50% or more. The list shows a part of the results.

tested on: Plasmodium falciparum; assay: Primary screen in NF54 nanoGlo assay, in single point, at 2uM, 72h; a lower Z score goes with more inhibition; format: functional, Erythrocyte; conditions: timepoint 72 hour

SMILES | % Inhibition | Z score
Cc1ccccc1N1CCN(C(=O)c2n[nH]c3c2CN(C(=O)Cc2ccc(Cl)cc2Cl)CC3)CC1 | 4% | -0.69
COc1ccc(C(=O)Nc2ccc(-n3nc(OCc4ccc(F)cc4)nc3-c3cccc(F)c3)cc2)cc1 | 0% | -0.05
O=C(NC1CC(=O)N2CCCCC12)N1CCCC(OC2CCC2)C1 (stereo not drawn) | -13% | 1.15
COc1cc(NC(=O)CN(CCOc2ccccc2)CCOc2ccccc2)cc(OC)c1 | -16% | 1.69
Cc1occc1C(=O)N[C@H]1CCCC2(C1)OCCO2 | -5% | 1.09
CCCc1nc(CNC(=O)c2sc(OC)nc2C)cs1 | 9% | -1.89
O=C(c1cnn(Cc2ccccc2)c1)N1CC2CCCCC2C1 (stereo not drawn) | -13% | 1.96
O=c1[nH]c2cc3nc(-c4cc(Cl)ccc4OCCCn4ccnc4)[nH]c3cc2[nH]1 | 0% | 0.02
CN(C)CCOc1ccc(C(=O)Nc2cccc3[nH]ccc23)cn1 | -7% | 0.95
O[C@@H]1c2ccc(-c3cc(F)cc(Cl)c3)cc2OC[C@H]1N1CCCC1 | -9% | 1.17
COc1ncc(NC(=O)c2ccc3c(c2)OCO3)c(OC)n1 | -8% | 1.44
COc1ccc2[nH]c3c(c2c1)CCN1C(=O)N(c2ccc(C(=O)NCc4ccccc4Cl)cc2)C(=O)[C@]31C | -9% | 1.22
COc1cc([C@H]2CC(=O)NCc3nc(N)sc32)ccc1OCC=C(C)C | -2% | 0.19
COc1ccc(NC(=O)c2ccc(NC(=O)Cn3c(=O)ccn(Cc4ccccc4)c3=O)cc2)cc1 | -19% | 1.94
Cc1cc(O)n2nc(Cc3nc([C@H]4CCOC4)no3)nc2n1 | -2% | 0.4
CCc1nnc(CNC(=O)Nc2cc(-n3cnnn3)cc(C)c2C)s1 | -6% | 0.74
CC(NC(=O)COCC1CCCO1)c1csc2ccccc12 (stereo not drawn) | -16% | 2.06
CN(Cc1ccccc1)C(=O)[C@H]1O[C@H](CCN2CCOCC2)CC[C@@H]1O | -8% | 1.19
Cn1c(CN2CCc3ccccc32)cc(=O)n(C)c1=O | -11% | 1.49
COc1ccc(C(=O)N2Cc3cccnc3C2)cc1C | -19% | 2.22
CC(C)c1ccc2cc(C(=O)N3CCO[C@]4(CNCCOC4)C3)[nH]c2c1 | 1% | -0.1

SMILES | % Inhibition | Z score
CC(NC(=O)c1ccc(OC2CCOC2)nc1)c1ccccc1 (stereo not drawn) | -5% | 1.02
CCNC(=O)CN(CC)C(=O)c1cc(F)c(Cl)cc1Cl | -6% | 0.47
CC[C@H](C)NC(=O)NCCc1ccc(CC2CCN(C(C)C)CC2)cc1 | 7% | -0.86
Cc1nccn1CC[C@H](NCc1cn(C)nc1-c1ccc2c(c1)OCCO2)c1ccccc1 | -17% | 1.5
CC(C)[C@@](C)(O)CNC(=O)c1sccc1OC(F)F | -7% | 1.34
Cc1cnc2c(C(=O)N3CCc4[nH]nc(-c5ccccc5F)c4C3)cnn2c1 | -18% | 2.4
CN1CC2(C[C@H]1c1noc(-c3ccccn3)n1)CN(C(=O)CN1CCOCC1)C2 | -9% | 1.49
N#Cc1cc(NC2CCCC2CO)nc2ccccc12 (stereo not drawn) | -11% | 1.66
CCC[C@H]1CN(C(=O)c2ccc(C)s2)C[C@@H]1C(=O)O | -4% | 0.62
Cn1c(CN2CCN(C(=O)C3CCCC3)CC2)cc(=O)n(C)c1=O | -6% | 0.53
Cc1ccc(C(F)(F)F)cc1NC(=O)N1CCO[C@]2(CCOC2)C1 | 10% | -1.1
O=C(c1cc(F)ccc1F)N1CC[C@H](c2nc(C3CCOCC3)no2)C1 | -28% | 4.15
Cc1c(C(=O)NCc2ccccc2)c(C)n2cnn(CC(=O)Nc3ccccc3)c(=O)c12 | -14% | 2.21
CC1=NN(c2ccc(C)cc2)C(=O)C12Cc1cc(C(F)(F)F)ccc1N1CCC(Cc3ccccc3)CC12 (stereo not drawn) | -1% | 0.19
O=C(c1cccs1)N1CCC[C@H](NS(=O)(=O)N2CCCCC2)C1 | -10% | 1.47
Cc1nc(C(=O)NCCN2CCCC2)c(C)o1 | 4% | -0.49
CC(C)(C)CC(=O)N[C@H](c1cnc2ccccc2c1)C1CC(O)C1 (stereo partly drawn) | -7% | 1.37
O=C(NCc1ccccn1)N1CCC[C@H]1c1ccc[nH]1 | -1% | 0.16
CCOc1ccc(Cl)cc1S(=O)(=O)N1CCC[C@H](C(=O)NCCCn2ccnc2)C1 | -34% | 3.98
COc1cccc(N2C(=O)N[C@H](C)C2=O)c1 | 36% | -1.61
O=C(NCC[C@H]1CCCN(CCC(F)(F)F)C1)c1ccncn1 | -8% | 1.07

SMILES | % Inhibition | Z score
Cn1ncc(-c2ccccc2)c1NC(=O)N1CCN[C@@H]2CS(=O)(=O)C[C@@H]21 | -3% | 0.46
CC(C)[C@H](CNC(=O)c1nc2c(s1)CCC2)N1CCN(C)CC1 | -5% | 0.83
CC1CN(C(=O)Cn2cc(NC(=O)c3cccc(F)c3F)cn2)CC(C)O1 (stereo not drawn) | 8% | -1.01
N#Cc1cccc(COc2cccc(NC(=O)C(=O)NCc3cc[nH]n3)c2)c1 | -7% | 1.16
CC1(C)C[C@]1(CNC(=O)CCc1cc(O)no1)c1ccccc1 | 6% | -1.09
COc1ccccc1Cn1c(C(=O)O)cc2ccccc2c1=O | -14% | 1.78
CCN1CC2(CCN(C(=O)N(C)C)CC2)C[C@@H](c2ccccc2)C1=O | -8% | 0.97
OC[C@@H]1COCCN(c2nccc(C(F)(F)F)n2)C1 | -13% | 2.51
CC1=CC(c2ccccc2)=Nc2nonc2N1 | 4% | -0.75
COC(=O)CN(CC(=O)OC(C)(C)C)C(=O)c1cc(F)ccc1F | -20% | 2.48
O=C(O[C@@H](Cn1cncn1)c1ccc(Cl)cc1)c1ccc(F)cc1 | -16% | 1.87
COc1cc([C@H]2CC(=O)Nc3ncn(-c4cccc(C(F)(F)F)c4)c32)ccc1O | 7% | -0.88
O=S(=O)(NCC1(O)CCCC1)c1ccc2ccccc2c1 | -9% | 1.51
CC(C)N1CC[C@H]2COC(=O)N2c2ccccc2C1 | 1% | -0.14
COc1ccc(OC)c(NC(=O)N2CC[C@H](N(CCN3CCCCC3)C(=O)N(C)C)C2)c1 | -3% | 0.44
CC(C)N(CCC#N)Cn1nc(Nc2cccc(Br)c2)sc1=S | -12% | 2.26
Cc1ncnc2c1CCC(=O)N2CCC1=CCCCC1 | -19% | 2.75
CC(=O)Nc1ccc(NC(=O)CCc2c(-c3ccc(F)cc3)nc3ccccn23)cc1 | 1% | -0.18
Cc1cc(=O)n(CC(=O)Nc2ccccc2C)c(-c2ccc(F)cc2)n1 | -6% | 0.52
O=C(Oc1ccccc1-c1cnc2ccccc2n1)c1ccc(F)cc1 | 2% | -0.3
Cc1n[nH]c([C@@H]2CN(C(=O)NC3CCCC3)CCCN2Cc2ccccc2)n1 | -14% | 2.68

SMILES | % Inhibition | Z score
CCn1c(NC(=O)C2CCCCC2)c(-c2ccc(Cl)cc2)c(=O)c2ccccc21 | 33% | -3.76
COc1cccc(Nc2c3c(nc4ncnn24)CCCC3)c1 | -10% | 0.94
CC12CCCN1C(=O)N(C1CCN(c3ccccc3Cl)C1=O)C2=O (stereo not drawn) | 3% | -0.35
CCCOc1ccc2c(c1)OCC(C(=O)N1CCC[C@H](C(N)=O)C1)=C2 | 37% | -4.2
CCN(CC(C)C)c1c(N)n(Cc2ccccc2)c(=O)[nH]c1=O | -5% | 0.47
COCC(C)(C)NS(=O)(=O)c1c(C)cc(C)c2nonc12 | -8% | 0.85
CCC1CC(NC(=O)N[C@H]2CCO[C@@H]2c2ccnn2CC2CC2)CCO1 (stereo partly drawn) | 4% | -0.7
CC1CC1C(=O)N1CCN(S(=O)(=O)c2ccccc2)CC1 (stereo not drawn) | -14% | 1.98
CN(C)C(=O)NCc1ccc(C#N)c(F)c1 | -1% | 0.1
Cc1ccccc1[C@@H](NC(=O)N1CCNC(=O)CC1)C(C)(C)C | -5% | 0.65
CN(c1nc2ccc(F)cc2n1C)[C@H]1CCOC1 | -4% | 0.79
O=S(=O)(CCO)c1ccc(NCc2ccc(Cl)s2)cc1 | -5% | 0.74
C[C@H]1CN(CC(=O)NCCn2cccn2)Cc2ccccc2O1 | -5% | 0.99
CC(O)CC(C)CNC(=O)c1c(O)cccc1Cl (stereo not drawn) | 1% | -0.05
COCCn1cnnc1CCNC(=O)c1cccc(-c2ccco2)c1 | -4% | 0.52
Cc1cc2cc(CNC(=O)c3ccc(Br)o3)ccc2n1C | -3% | 0.45
Cn1ccnc1C(=O)Cc1ccc(F)cc1 | -2% | 0.36
CNC(=NCc1ccccc1OCCC(C)C)NC | 6% | -0.91
OC(CNC1CCCC(C(F)(F)F)C1)CN1CCCCC1 (stereo not drawn) | -7% | 0.99
COc1ccc(CN2CCC3(CC2)NC(=O)c2cc(Cl)ccc2N3)cc1 | -5% | 0.61
CC(=O)c1cccc(CN2CCC(CCC(=O)N(C)Cc3ccccc3)CC2)c1 | -3% | 0.34
